Test results published in PMC10668032.
The other results are listed elsewhere or left out. At the low end of the ranking the order means little.

These sequences were tested against SIX1-Q177R homeodomain (UniProt Q15475) (assay: universal protein binding microarray). Settings: Universal all-10-mer PBM (8x60K, AMADID 030236), 300 nM GST-tagged protein, Alexa Fluor 488 anti-GST; buffer, salt, pH and temperature not stated; high values mean tight binding; most listed sequences are background and not binding sites; double strand, one strand shown.

| Sequence | binding signal [E-score] |
| --- | --- |
| CCCCGGCA | 0.148 |
| CGTCCGTA | -0.122 |
| CGGGGACA | 0.125 |
| ATGAACCC | 0.198 |
| CAGCAGCG | -0.0463 |
| GAGCTTTA | -0.224 |
| CATCAAGG | -0.205 |
| GGACACTA | 0.358 |
| GGCGCGTA | -0.145 |
| ACTCAGAA | -0.188 |
| GTGGATCA | 0.161 |
| CCCCCTAA | 0.119 |
| TCTCGTAA | -0.133 |
| CAAGCACC | 0.176 |
| ATGCGCCG | -0.124 |
| ATGTTTTA | -0.14 |
| ATCCTGTG | 0.105 |
| AAAGCGAC | 0.0713 |
| AATGGGTA | -0.0439 |
| AGGATGAA | -0.158 |
| AGTTGACC | 0.0683 |
| CATAATAG | -0.237 |
| GGCGTCAC | 0.145 |
| CACCCTAA | 0.326 |
| AGAATCGA | -0.264 |

| Sequence | binding signal [E-score] |
| --- | --- |
| CCTAAGTA | -0.0298 |
| ATGACGGG | -0.126 |
| CTCATTTC | -0.218 |
| CAACGATG | -0.0102 |
| CTCAGCTC | -0.129 |
| CGAATCCG | 0.166 |
| CCGTCATA | -0.134 |
| CAGCGCGA | -0.25 |
| CGAGGCAA | 0.186 |
| GGTGTGAA | 0.427 |
| AATCGTAG | 0.0889 |
| ACCCTACG | 0.164 |
| ACCAAAAC | -0.0378 |
| AAGCTAAG | -0.17 |
| CACCTTCC | 0.307 |
| CTAACACC | 0.478 |
| ATCTGAGG | 0.0165 |
| CTGACCCA | 0.117 |
| AGGTCTGC | -0.284 |
| ACTTTTTA | -0.168 |
| GCTTCATA | -0.0561 |
| GCTTGATA | -0.0757 |
| CTTGAAAG | -0.111 |
| CCATGACC | -0.00611 |
| CTAGACTC | 0.0396 |

| Sequence | binding signal [E-score] |
| --- | --- |
| AATTGAAC | -0.211 |
| GGACTAGA | -0.279 |
| AAAATATT | -0.0776 |
| AGTCGTCG | -0.28 |
| CAAACATA | -0.3 |
| AGCTCCCG | -0.111 |
| AGCCATAA | -0.208 |
| ATTCTTCC | -0.302 |
| CATGGTGC | 0.123 |
| TCGTTTCA | -0.125 |
| CTTAGGTA | -0.0285 |
| ATACAATG | -0.273 |
| AATGCGGT | 0.081 |
| CGTCTCCC | -0.017 |
| TCTTATAA | 0.0214 |
| AATAACGG | -0.188 |
| AGAGGAAC | -0.198 |
| CGCAGGTA | 0.134 |
| CCCGGCTC | 0.0122 |
| ACCTAGCA | 0.0118 |
| GTGTGTCA | 0.369 |
| CCAGGACA | 0.12 |
| AACGCGCC | -0.091 |
| GACTAGGC | -0.183 |
| CTCGCTGA | -0.177 |

| Sequence | binding signal [E-score] |
| --- | --- |
| ACGAAAGT | -0.098 |
| ACTGGCCG | -0.269 |
| ATGTCTCC | -0.221 |
| GCAACTGC | -0.206 |
| AGCGGGCC | -0.35 |
| AGTCTTCG | -0.025 |
| CAGCAAAA | -0.148 |
| AGCATTTA | -0.113 |
| ATAACGAA | -0.311 |
| AGATCTTG | -0.133 |
| GAACTGTC | -0.122 |
| ACTCTGCC | -0.0185 |
| GTGTCGGA | 0.454 |
| GCATAGAA | -0.0713 |
| GACTGAGA | -0.19 |
| GAAATCTA | 0.0624 |
| AATGTTAT | -0.27 |
| AACCTCCA | -0.152 |
| ATGTGAAG | -0.147 |
| GAGGACGC | -0.0433 |
| ACCTGTCT | 0.00486 |
| CGTGGGCA | -0.143 |
| ACTGCTCT | -0.0781 |
| ATCAGCTA | -0.128 |
| ATTTGATC | -0.0537 |

| Sequence | binding signal [E-score] |
| --- | --- |
| CGAATAAG | -0.161 |
| CCTACGCG | 0.104 |
| ACACTGGC | 0.379 |
| AAGAGTCG | 0.0359 |
| GAAAAGGA | -0.191 |
| AAACGAGA | -0.0816 |
| ACTGGCCC | -0.188 |
| ACACAAGC | 0.115 |
| CCAATAGA | -0.138 |
| CCGTAATC | -0.0494 |
| TGAAAGAA | -0.223 |
| ATGAAGCC | -0.111 |
| GCCAAAAC | -0.22 |
| TGGGCCAA | -0.0936 |
| CCTGAGAC | -0.0593 |
| AGCAGCAC | -0.12 |
| AAGACCGA | -0.163 |
| CGCGTACA | 0.254 |
| GTAAAAGA | -0.0925 |
| GCCCCTAA | -0.167 |
| AAAAGAGT | 0.0435 |
| CACAACAA | 0.168 |
| AGTCTCCC | -0.167 |
| CAGGACGA | 0.0688 |
| AAGACGGC | -0.121 |

| Sequence | binding signal [E-score] |
| --- | --- |
| ATCCGCAG | 0.0691 |
| GCCCATGA | -0.0591 |
| AACGTACC | 0.00034 |
| AATCTGCC | -0.121 |
| CTTGCTGA | -0.0939 |
| ATGCACTC | 0.0795 |
| GGAGAGTA | 0.116 |
| AAGCTCCT | -0.0694 |
| AGCATGTC | -0.164 |
| CAGCAGGA | -0.154 |
| CGAATCCA | 0.0485 |
| CAAGCGAC | 0.082 |
| CGGCATAG | -0.107 |
| GCTTCCAC | -0.153 |
| ACGTAAAC | 0.00366 |
| CAGAAGGC | -0.134 |
| AACTACCA | -0.162 |
| ATCCTAGC | -0.00448 |
| AGGCACCT | -0.0237 |
| AGTTCTGC | -0.347 |
| GTGGCTTA | -0.25 |
| AGCCGCCT | -0.107 |
| ATATACCG | 0.15 |
| AGCACTTA | -0.0453 |
| GCCACGCC | -0.107 |

| Sequence | binding signal [E-score] |
| --- | --- |
| TCGTAACA | 0.0751 |
| CGTGCCGC | 0.114 |
| CCAGGCTA | 0.000525 |
| CACAGGCG | 0.0231 |
| ATCCGATG | -0.034 |
| CAAACACC | 0.449 |
| AGATTCCA | -0.12 |
| AAACGTTC | -0.338 |
| GTCGCCAA | -0.14 |
| AATTACCT | -0.226 |
| CCTTTACA | 0.242 |
| CATTTTCA | -0.0252 |
| CTCCTCCC | -0.129 |
| CAACTTTA | -0.249 |
| ACGGAGAG | 0.0371 |
| CACTCCGC | 0.256 |
| CTCGGTTC | -0.0697 |
| CAGCGTCC | 0.0331 |
| CCACCAGA | 0.00421 |
| GTGATAAA | -0.232 |
| CTGCATGA | -0.16 |
| ACGATGCG | -0.145 |
